Assay results from patent US20250367183A1, “SUBSTANCE FOR PROMOTING REGENERATION AND REPAIR OF ORGANS OF MAMMALS AND USE THEREOF” (INSTITUTE OF ZOOLOGY, CHINESE ACADEMY OF SCIENCES, priority 2022, published 2025).

Test system: STING-TBK1-IRF3 signaling pathway
Test: immunofluorescence staining of STING/TBK1/IRF3 signaling
Format: cell-based
Details: in vitro (FIG. 4E)

## C[C@@H]1C[C@@H]([C@H](O)CC2CC(=O)NC(=O)C2)C(=O)[C@@H](C)C1 [CHX, 4-((R)-2-((1S,3S,5S)-3,5-dimethyl-2-oxocyclohexyl)-2-hydroxyethyl)piperidine-2,6-dione]
  activation of STING-TBK1-IRF3 signaling: perinuclear enrichment of STING protein and the nuclear entry of IRF3 protein
